Settings in all cases: tested range 1 to 512 μg/ml
The test system of experiment [1] is C. difficile.
Experiment [2] relates to B. thuringiensis.
Experiment [3] has as its system Listeria monocytogenes.
The test system of experiment [4] is E. coli.
Experiment [5] deals with C. tyrobutyricum.
Experiment [6] deals with C. sporogenes.
The subject of experiment [7] is Salmonella thyphymurium.

Ends that are not written are not given here.

What is called MIC is the least concentration at which growth counts as inhibited. As for ALLKVLFSWFRKHNSRRKNLPAKN [Seq ID no2], the MIC in experiment [1] was found to be 1.5 µg/mL; in experiment [2], 256 µg/mL; in experiment [3], 32 µg/mL; in experiment [4], 256 µg/mL; in experiment [5] it was 1 µg/mL; in experiment [6], 4 µg/mL.

In the case of AYRRVPCRKRGGIRFTINGH [Seq ID no4], the MIC in experiment [3] is 512 µg/mL; in experiment [4], 128 µg/mL; in experiment [5], 16 µg/mL; in experiment [6], 512 µg/mL; in experiment [7], over 512 µg/mL.

In the case of GWFNRGARCGRMIKIKARNG [Seq ID no3], the MIC turned out to be 128 µg/mL in experiment [2], 512 µg/mL in experiment [3], 64 µg/mL in experiment [5] and 256 µg/mL in experiment [6].

For the origin of these results see US20230287061A1, “NEW ANTIMICROBIAL PEPTIDES” (priority 2020, published 2023).
